Several values for one entry are separate records, joined by “and”; a condition that tells them apart may be missing. Equal values may be shown once.
Assays:
[1] = test system: TOV112D cells (p53^R175H); test: Intracellular free zinc concentration, FluoZin-3 imaging; format: cell-based; conditions: 1 μM ZMC1, peak by four hours, baseline by 8 hours
TOV112D parental cells [2] = test: Cell growth inhibition / viability, TOV112D parental cells; format: cell-based; conditions: read-out: EC50 cell growth inhibition; parental cells, 72 hours, Calcein-AM
[3] = test system: TOV112D MT2A/MT1A KO cells; test: Cell growth inhibition; format: cell-based; conditions: read-out: EC50 cell growth inhibition; MT1A/MT2A knockout, 72 hours, Calcein-AM
TOV112D parental cells [4] = test: 24-hr cell growth, crystal violet, parental cells; format: cell-based; conditions: 1 μM ZMC1, 24 hours
[5] = test system: TOV112D MT2A/MT1A KO cells; test: 24-hr cell growth, crystal violet, MT1A/MT2A KO cells; format: cell-based; conditions: 1 μM ZMC1, 24 hours
270H (p53^R270H/+) = test: Cell growth inhibition; format: cell-based, murine; conditions: 72 hours, MTS
K8483 (p53^−/−) = test: Cell growth inhibition; format: cell-based, murine; conditions: 72 hours, MTS
[6] = Pharmacokinetics in mouse plasma; format: in vivo, male BALB/c mice; conditions: 2 mg/kg IV, plasma
[7] = Acute toxicity / maximum tolerated dose; format: in vivo, mice; conditions: 5 mg/kg IP
TOV112D cells = test: Colony formation; format: cell-based; conditions: 0.01 μM
[8] = test system: TOV112D cells (p53^R175H); test: p21 / p53 western blot time course, TOV112D; format: cell-based; conditions: 1 μM ZMC1, loss of activity by 24 hours
K8484 cells = test: p21 western blot time course, K8484; format: cell-based, murine; conditions: 1 μM ZMC1, baseline by 24 hrs

## C/C(=N\NC(=S)N1CCC1)c1ccccn1 [ZMC1]
[1]
  peak intracellular free zinc level: 15 nM
TOV112D parental cells [2]
  EC50: 69.1 nM and 69 nM
[3]
  EC50: 22.9 nM
TOV112D parental cells [4]
  cell growth normalized with vehicle control: 42%
[5]
  reduction in cell growth of KO cells compared to parental cells: 45%
[5]; crystal violet
  cell growth normalized with vehicle control: 19%
270H (p53^R270H/+)
  EC50 cell growth inhibition: could not reach an EC50
K8483 (p53^−/−)
  EC50 cell growth inhibition: could not reach an EC50
[6]
  AUClast: 0.385 µM·h
  half life: 35.4 min
[6]; read-out: maximum concentration (Cmax)
  Cmax: 2400 nM
[7]
  weight loss: no significant weight loss
TOV112D cells
  exposure time sufficient to reduce colonies: at least 15 minutes
TOV112D cells; exposure of less than 30 minutes, then 14 days drug-free
  number of colonies by day 14: significantly reduce the number of colonies
[8]
  time of maximal activation (p21 up, mutant p53 down): 6 to 8 h
K8484 cells
  time of peak in p21: 8 h

Source: PMC6139040 (Clinical cancer research : an official journal of the …, 2018)
